Among all 91,000 compounds or so, about 290 (0.32%) were called active. The shares of active, inactive and inconclusive entries below differ from those in the screen. Calls follow the shape of the dose curve; as a rule, active = well fitted inhibition curve with a large enough effect; inconclusive = small, poorly fitted or top-dose-only effect; inactive = no such curve, though single readings can be large or run the other way. Potencies of inconclusive entries are doubtful fits and often do not repeat.
The molecules below were run against Single-stranded DNA cytosine deaminase (Homo sapiens) (UniProt Q9GZX7) (assay: Primary qHTS assay for inhibitors of Activation Induced Cytidine Deaminase (AID): AID signal). Conditions: AID deamination FRET fluorescence, UDG-coupled, 4 h; activity change, negative = inhibition: at 115 µM (top of the series).
% is scaled to controls: 0 for no effect and ±100 for the full control effect; potency is read from the fitted curve at half-maximal effect; tags tell the direction and shape of the fitted curve.
Also: nearly all actives have a fitted effect of over 25% in size.

Sequence of UniProt Q9GZX7 (Q9GZX7 whole entry, looked up): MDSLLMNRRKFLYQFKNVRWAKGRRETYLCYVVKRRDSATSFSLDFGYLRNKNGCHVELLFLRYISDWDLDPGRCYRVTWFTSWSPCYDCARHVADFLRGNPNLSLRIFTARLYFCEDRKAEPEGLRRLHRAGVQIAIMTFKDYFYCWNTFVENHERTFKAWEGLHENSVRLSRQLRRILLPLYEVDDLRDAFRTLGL

Row | SMILES | activity change, negative = inhibition | Potency
1 | O=C(Cn1nc(Cc2cccnc2)c2ccccc2c1=O)N1CCN(c2ccc(F)cc2)CC1 | inactive: -16.4% | 
2 | COC(=O)c1ccc(OCC2c3cc(OC)c(OC)cc3CCN2C(=O)c2cccc(C)c2)cc1 (stereo not drawn) |  | inconclusive: 79.4 µM [inhibitor, partial curve, poor fit]
3 | COC(=O)CSc1sc(=O)sc1SC | inactive: 92.2% | 
4 | COc1ccc2c(c1)NC(c1ccc(F)cc1)=NC(c1ccc(F)cc1)=N2 |  | inconclusive: 79.4 µM [inhibitor, partial curve, poor fit]
5 | O=C(Nc1ccc(F)c(F)c1)c1cc(S(=O)(=O)C2CCS(=O)(=O)C2)ccc1F (stereo not drawn) | inactive: 0.276% | 
6 | Cc1ccc(CCNC(=O)c2ccc3c(c2)N(Cc2cc(C)ccc2C)C(=O)c2ccccc2S3=O)cc1 (stereo not drawn) |  | inconclusive: 79.4 µM [inhibitor, single point]
7 | CC(C)(C)c1ccc(-c2nnc(-c3ccccc3NC(=O)c3cccc(C(F)(F)F)c3)o2)cc1 |  | inconclusive: 31.6 µM [inhibitor, partial curve, poor fit]
8 | Cc1oc(-c2cccc(Br)c2)nc1Cn1c(SCc2cccc(F)c2)nc2cccnc21 |  | inconclusive: 22.4 µM [inhibitor, full curve]
9 | CSc1ccccc1N1CCN(CCCCCC(=O)NC2CCCc3ccccc32)CC1 (stereo not drawn) |  | inconclusive: 44.7 µM [inhibitor, partial curve, poor fit]
10 | COc1ccc(NC(=O)CSc2cn(CCNC(=O)c3ccc(OC)cc3)c3ccccc23)cc1 |  | inconclusive: 44.7 µM [inhibitor, partial curve, poor fit]
11 | CCCCCNC(=O)C1CCC(Cn2c(=O)c3sccc3n(CC)c2=O)CC1 (stereo not drawn) |  | inconclusive: 89.1 µM [inhibitor, single point]
12 | O=C(Nc1ccccc1)c1cccc(CSc2cccc[n+]2[O-])c1 | inactive: -7.82% | 
13 | Cc1cccc2c(=O)n(CC(=O)Nc3ccc4oc(C(C)(C)C)nc4c3)cnc12 | inactive: -7.58% | 
14 | Cc1c(C(=O)O)cccc1-n1cccc1 | inactive: 0.131% | 
15 | Cc1cccc(-n2ncc(C(=O)NCc3ccc4c(c3)OCO4)c2C2CCN(C(=O)OC(C)(C)C)CC2)c1 |  | inconclusive: 25.1 µM [inhibitor, full curve]
16 | CCC(C(=O)NCc1ccc(SC)cc1)n1nc(C)c2c(C)n(-c3ccccc3)nc2c1=O (stereo not drawn) |  | inconclusive: 56.2 µM [inhibitor, partial curve]
17 | O=C(COC(=O)C12CC3CC(CC(O)(C3)C1)C2)Nc1ccc([N+](=O)[O-])cc1Cl | inactive: -8.22% | 
18 | CCC(CC)C(=O)N1CCc2cc(OC)c(OC)cc2C1COc1ccc(F)cc1 (stereo not drawn) |  | inconclusive: 56.2 µM [inhibitor, partial curve, poor fit]

Reference: PubChem BioAssay AID1347428 (National Center for Advancing Translational Sciences (NCATS), 2020)
